# Experimental data from article PMC4336329 (PLoS ONE, 2015).
# Among all 310,000 compounds or so, about 2,200 (0.71%) showed an effect of 50% or more. Effects have a minus sign here. This is one part of the list.
# Biological target: human ether-à-go-go-related gene (hERG) potassium channel (human, UniProt Q12809)
# Assay: primary screen, population patch clamp on CHO cells stably expressing hERG
# human ether-à-go-go-related gene (hERG) potassium channel, sequence (Q12809 whole entry, looked up): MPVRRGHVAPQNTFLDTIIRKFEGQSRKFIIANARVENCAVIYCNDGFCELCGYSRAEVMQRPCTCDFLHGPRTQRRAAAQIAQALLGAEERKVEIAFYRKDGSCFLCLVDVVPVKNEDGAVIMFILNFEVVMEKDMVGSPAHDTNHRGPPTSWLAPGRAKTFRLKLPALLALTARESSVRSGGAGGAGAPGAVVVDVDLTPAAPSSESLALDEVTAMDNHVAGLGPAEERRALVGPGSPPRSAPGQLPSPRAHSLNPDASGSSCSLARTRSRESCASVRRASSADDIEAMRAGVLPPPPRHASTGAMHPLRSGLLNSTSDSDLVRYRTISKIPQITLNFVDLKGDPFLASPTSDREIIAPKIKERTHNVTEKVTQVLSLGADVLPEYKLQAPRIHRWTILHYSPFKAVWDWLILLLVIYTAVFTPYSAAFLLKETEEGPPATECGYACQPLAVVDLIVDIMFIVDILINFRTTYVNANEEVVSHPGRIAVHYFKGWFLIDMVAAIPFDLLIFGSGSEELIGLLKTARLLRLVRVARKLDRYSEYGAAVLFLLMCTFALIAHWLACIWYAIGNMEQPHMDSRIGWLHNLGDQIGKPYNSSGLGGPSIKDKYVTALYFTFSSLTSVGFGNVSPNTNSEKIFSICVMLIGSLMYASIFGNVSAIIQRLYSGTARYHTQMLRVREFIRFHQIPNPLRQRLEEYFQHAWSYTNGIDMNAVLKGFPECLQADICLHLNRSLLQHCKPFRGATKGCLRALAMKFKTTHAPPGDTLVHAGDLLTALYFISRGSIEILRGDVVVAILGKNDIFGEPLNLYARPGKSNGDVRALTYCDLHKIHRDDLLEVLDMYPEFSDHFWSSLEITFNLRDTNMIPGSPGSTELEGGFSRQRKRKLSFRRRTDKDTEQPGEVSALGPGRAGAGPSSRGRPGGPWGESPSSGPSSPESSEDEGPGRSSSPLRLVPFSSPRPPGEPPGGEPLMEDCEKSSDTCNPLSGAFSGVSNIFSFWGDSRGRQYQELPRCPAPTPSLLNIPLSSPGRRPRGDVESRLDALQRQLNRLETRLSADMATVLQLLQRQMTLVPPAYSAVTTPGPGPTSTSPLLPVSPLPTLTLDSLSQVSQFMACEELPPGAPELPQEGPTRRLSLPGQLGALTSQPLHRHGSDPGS
row,SMILES,"hERG current change (%, negative = inhibition) at 1uM [%]"
1,CCN1CCN(C(c2cccs2)C(C)NC(=O)C(=O)N2CCCCC2)CC1 (stereo not drawn),14.5
2,Cc1ccc(S(=O)(=O)N(C)C)cc1NC(=O)C1CCCC1,2.29
3,CCOc1ccccc1N1CCN(Cc2ccc(Br)s2)CC1,2.99
4,CC1CCCN(C(=O)c2ccc([N+](=O)[O-])o2)C1 (stereo not drawn),0.365
5,O=C(O)C1C2CCC(O2)C1C(=O)Nc1ccc(F)c(F)c1 (stereo not drawn),20.1
6,Cc1ccc(-n2nc3c(c2NC(=O)c2ccc(Br)o2)CSC3)c(C)c1,-0.97
7,O=C(CCCCCN1C(=O)c2cccc3cccc(c23)C1=O)NC1CCS(=O)(=O)C1 (stereo not drawn),7.49
8,NNC(=O)CSc1nc(-c2ccccc2)nc2c1CCCC2,7.49
9,CC(=O)Nc1ccc(Nc2cc(N3CCOCC3)c3nonc3c2[N+](=O)[O-])cc1,6.96
10,CCOCCCn1c(=NC(=O)c2cccnc2)c(C(=O)OCC)cc2c(=O)n3ccccc3nc21,-67.8
11,O=C(NCCNC(=O)c1ccccc1[N+](=O)[O-])c1ccccc1[N+](=O)[O-],16.6
12,Cc1cc(NS(=O)(=O)c2ccc(NS(=O)(=O)c3ccc(CC(C)C)cc3)cc2)nc(C)n1,21.3
13,CCn1cc(C(=O)O)c(=O)c2cc3c(cc21)OCO3,17.5
14,Cn1c(SCC(=O)c2ccc3c(c2)OCCO3)nnc1C(F)(F)F,4.9
15,Cc1cccc(N(CC(=O)NC2CCCCC2)C(=O)Cn2nnc(-c3ccc(C)o3)n2)c1,14.3
16,CN(C)n1cccc1/C=C(\C#N)S(=O)(=O)c1ccc(Cl)cc1,14
17,CC(C)CCNC(=O)C(c1ccncc1)N(C(=O)Cn1nnc(-c2ccc(F)cc2)n1)c1ccccc1F (stereo not drawn),0.123
18,Cc1ccc(S(=O)(=O)/C(C#N)=C/c2c(N3CCN(Cc4ccccc4)CC3)nc3ccccn3c2=O)cc1,11
19,COc1cc(OC)c(C2Nc3ccccc3NC3=C2C(=O)CC(C)(C)C3)cc1OC (stereo not drawn),13.8
20,Cc1ccccc1NC1=NS(=O)(=O)c2ccccc21,7.81
21,O=C(/C=C/c1ccccc1)NC(=O)c1ccccc1O,10.3
22,CCOc1cc(C2NC(=O)NC(c3ccccc3)=C2C(=O)c2ccccc2)c(Br)cc1OCC(=O)O (stereo not drawn),9.03

row,SMILES,"hERG current change (%, negative = inhibition) at 1uM [%]"
1,Cc1ccc(-n2nnnc2CSc2nnc(-c3ccc(O)cc3)o2)cc1,0.75
2,CC(CN1CCN(C)CC1)OC(=O)c1ccc(F)cc1.Cl (stereo not drawn),4.96
3,CCCCCC(=O)Nc1cccc(C2=NOC3(C2)C[C@H](C(N)=O)N(C(=O)c2ccccc2)C3)c1 (stereo partly drawn),11.2
4,CC(C)(C)c1ccc(CS(=O)(=O)CC(O)CN2CCCC2=O)cc1 (stereo not drawn),16
5,Cl.c1ccc2c(c1)oc1c(NCCN3CCOCC3)ncnc12,7.6
6,Cn1c(CC2C(=O)Nc3ccc(Br)cc32)nc2ccccc2c1=O (stereo not drawn),8.92
7,Cc1c(C)c2ccc(OCC(=O)NCCCn3ccnc3)c(C)c2oc1=O,-11.1
8,COC(=O)Cc1csc(Nc2ccc(Cl)cc2)n1,14.2
9,O=C(COc1ccc(S(=O)(=O)N2CCOCC2)cc1)NC1CCCCC1,21.3
10,CCN(CC)CCCC(C)NC(=O)c1cccc(S(=O)(=O)N2CCc3ccccc32)c1.Cl (stereo not drawn),-2.88
11,CC(C)CC(=O)Nc1c2c(nn1-c1ccc(F)cc1)CSC2,11.5
12,CC(C)n1c(NCCO)nc2ccccc21,12
13,CCO[C@@H]1OC(C(=O)NCc2ccccc2)=C[C@H](C)[C@H]1CCCO,5.75
14,Cc1ccc(-n2nc3c(N4CCC(C(=O)NCc5ccc(C)o5)CC4)nnc(C)c3c2C)cc1,12
15,CC(C)(C)NC(=O)C(c1cccs1)N(CC1CCCO1)C(=O)Cn1nnc(-c2cccs2)n1 (stereo not drawn),6.19
16,Cc1ccccc1C(=O)N1CCC(C(=O)Nc2ccc(S(=O)(=O)N3CCCC3)cc2)CC1,5.5
17,C#CCOc1ccc2c(C)cc(=O)oc2c1,9.48
18,COc1cc(NC(=O)CN2C(=O)C(=O)N(C3CCCC3)C2=O)cc(OC)c1,15.7
19,CCC(CC)C(=O)Nc1cccc(-c2nc3ccccc3o2)c1,9.45
20,COc1cccc(N2CC(NS(=O)(=O)c3cccnc3)CC2=O)c1 (stereo not drawn),7
21,O=C(c1nc2ccc(Cl)cn2c1CNCC[C@@H]1C[C@@H]2C=C[C@H]1C2)N1CCCCCCC1,11.2
22,O=C(C[n+]1cccc(/C=N/O)c1)N(Cc1ccccc1)Cc1ccccc1.[Cl-],7.9

row,SMILES,"hERG current change (%, negative = inhibition) at 1uM [%]"
1,COc1cc(OC)cc(C(=O)Nc2ccccc2S(=O)(=O)N2CCCC2OC(C)=O)c1 (stereo not drawn),8.15
2,Cc1cccc(NC(=O)CSc2nnnn2C)n1,12.6
3,CC(Oc1ccc(F)cc1)C(O)CCN(C)C (stereo not drawn),12.9
4,O=C(/C=C/c1ccc([N+](=O)[O-])cc1)NCc1ccccn1,-10.1
5,O=S(=O)(NCc1ccccn1)c1ccc(Cl)s1,13.4
6,COc1ccc(CN(CC(=O)NCc2ccccc2)C(=O)c2csnn2)cc1,6.04
7,Cc1ccc(NC(=O)Cn2cc(S(=O)(=O)c3ccccc3)c(=O)c3cc(F)ccc32)cc1,-1.65
8,N#CCCN1CCN(Cc2cc(-c3ccccc3)ccc2O)CC1,2.43
9,COc1ccc(N(C)C(=O)c2cnc(N3CCN(c4ncccn4)CC3)c3ccccc23)cc1,12.9
10,CC[C@@H](C)[C@H](NC(=O)Cc1c(C)c2cc3c(C)c(C)oc3c(C)c2oc1=O)C(=O)O,13.1
11,Cc1sc2nc3n(c(=O)c2c1C)CCCCC3,7.1
12,CC(C)CNC(=O)COC(=O)C1c2ccccc2Oc2ccccc21,2.68
13,COc1cc(/C=C2\SC(=S)N(NC(=O)c3cccnc3)C2=O)ccc1O,12.6
14,CC(C(=O)Nc1nccs1)c1ccc([N+](=O)[O-])cc1 (stereo not drawn),-9.36
15,CCCCN(C)C(=O)c1cc2cc3ccc(OC)cc3nc2s1,15.5
16,CCOC(=O)C1=C(C)NC(=O)NC1c1cccs1 (stereo not drawn),13.3
17,CCN(C(=O)CSc1nc2ccccc2c(=O)n1C(C)COC)C1CCS(=O)(=O)C1 (stereo not drawn),2.14
18,Cc1ccc(S(=O)(=O)CCC(=O)NCCC2=CCCCC2)cc1,0.671
19,O=C(CN(Cc1ccccc1Cl)C(=O)CNS(=O)(=O)c1ccccc1)NCC1CCCO1 (stereo not drawn),18.5
20,COc1ncnc2c1ncn2CC1COC(C)(C)O1 (stereo not drawn),15.2
21,Oc1cccc2c(NC(=S)Nc3ccc(SC(F)F)cc3)cccc12,12.9
22,O=C(Nc1cc(C(=O)Nc2ccccc2C(=O)O)cc(C(=O)Nc2ccccc2C(=O)O)c1)c1ccccc1,-8.18

row,SMILES,"hERG current change (%, negative = inhibition) at 1uM [%]"
1,Cc1ccc(Oc2nc(-c3ccccn3)nc3ccccc23)cc1,8.23
2,Fc1ccc(N2CCN(Cc3c[nH]c4ccccc34)CC2)cc1,-26.6
3,COc1cccc(C2CC(c3ccc(Cl)cc3Cl)n3nc(N)nc3N2)c1 (stereo not drawn),3.69
4,O=C1CSC(c2ccc([N+](=O)[O-])cc2)N1c1ccc(O)cc1 (stereo not drawn),16.6
5,Cc1nc2scc(C)n2c(=O)c1S(=O)(=O)NCC1CCN(Cc2ccc(F)cc2)CC1,-15.6
6,O=C(NC1CCS(=O)(=O)C1)c1cccc(Cl)c1 (stereo not drawn),6.44
7,CC(C)NS(=O)(=O)c1cc(F)ccc1CN1C(=O)c2cccnc2C1=O,-1.72
8,O=C(CCc1nnc(CCCCc2ccccc2)o1)NCCc1cccnc1,1.52
9,COc1ccc2cc(CCNC(=O)c3ccc(Br)o3)c(=O)[nH]c2c1,7.86
10,CC(C)N(Cc1nc(-c2ccccc2)no1)C(=O)Cc1ccccc1,11.8
11,Cc1ccc(C(=O)/C=C/c2cn(CC(O)CN3CCOCC3)c3ccccc23)cc1 (stereo not drawn),15.3
12,CCOc1ccc(S(=O)(=O)N2CCC(c3ccccc3)CC2)cc1C(=O)O,25
13,COc1cccc(C(=O)NNC(=O)c2sccc2-n2cccc2)c1,13.4
14,COc1ccc(C2CC(=O)C3=C(C2)Nc2ccccc2N(C(C)=O)C3c2ccco2)cc1 (stereo not drawn),3.21
15,COC(=O)c1ccc(CN2CCN(C3CCCCC3)C(CCO)C2)cc1 (stereo not drawn),-3.89
16,CN(C)c1c([N+](=O)[O-])cc2[nH]c(=O)[nH]c2c1[N+](=O)[O-],8.21
17,Cc1cc(-n2nc3ccccc3n2)c(O)c([N+](=O)[O-])c1,10.4
18,COCCCN1C(=O)C(=O)/C(=C(/O)c2ccc(OC)cc2)C12C(=O)N(C)c1ccccc12 (stereo not drawn),9.11
19,CC/C=C(/NC(C)=O)c1ccccc1,14.3
20,CN1c2ccccc2C(=O)/C(=C\Nc2ccc(F)cc2)S1(=O)=O,5.4
21,COc1ccc(CNC(=O)C(c2ccco2)N(C(=O)CNS(=O)(=O)c2ccccc2)c2ccccc2C)cc1 (stereo not drawn),3.96
